# Results as given in PubChem BioAssay AID1434 (Sanford-Burnham Center for Chemical Genomics, 2008).
# This is one part of the list. These are further read-outs of the screen, such as a control signal, another cell line or another target. No call is given for them. Most of these compounds were active or inconclusive in the main read-out, so they are no random draw.
# Target: Runt-related transcription factor 1 (Homo sapiens) + Core-binding factor subunit beta (Homo sapiens) (UniProt Q01196+Q13951)
# Test: inhibitors of RUNX1 Runt–CBFb-SMMHC binding, primary screen, biochemical, FRET, Cerulean-Runt, Venus-CBFb-SMMHC, uHTS (AID 1434);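 further: 0% = DMSO wells and 100% = wells with excess untagged CBFb-SMMHC; inhibitors lower the FRET ratio by blocking Runt binding to CBFb-SMMHC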
# Details: Cerulean-Runt/Venus-CBFb-SMMHC FRET ratio 530/480, 1 h; retest duplicate average; at 20 µM; stronger effect = higher value
# UniProt Q01196, sequence (Q01196 whole entry, looked up): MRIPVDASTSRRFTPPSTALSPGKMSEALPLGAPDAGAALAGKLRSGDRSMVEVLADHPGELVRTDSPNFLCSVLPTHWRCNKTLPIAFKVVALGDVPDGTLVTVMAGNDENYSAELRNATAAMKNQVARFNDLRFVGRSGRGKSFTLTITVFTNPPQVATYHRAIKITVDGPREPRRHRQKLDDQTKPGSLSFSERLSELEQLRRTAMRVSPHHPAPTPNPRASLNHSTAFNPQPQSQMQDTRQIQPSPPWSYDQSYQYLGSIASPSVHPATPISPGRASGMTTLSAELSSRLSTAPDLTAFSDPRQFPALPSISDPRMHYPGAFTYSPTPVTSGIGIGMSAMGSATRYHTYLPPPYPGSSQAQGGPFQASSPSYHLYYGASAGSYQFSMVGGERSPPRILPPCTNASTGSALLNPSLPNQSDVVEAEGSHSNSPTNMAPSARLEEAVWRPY
# UniProt Q01196, sequence (Q13951 whole entry, looked up): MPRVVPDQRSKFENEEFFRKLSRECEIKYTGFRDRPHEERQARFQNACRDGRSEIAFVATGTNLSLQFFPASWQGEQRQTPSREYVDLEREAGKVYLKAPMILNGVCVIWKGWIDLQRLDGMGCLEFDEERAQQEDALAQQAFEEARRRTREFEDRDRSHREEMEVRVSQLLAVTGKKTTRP
row,SMILES,inhibition [%]
1,Cc1cccn2c(=O)c(/C=C(\C#N)C(N)=O)c(N3CCN(Cc4ccc5c(c4)OCO5)CC3)nc12,181
2,CN1/C(=C\C(=O)c2ccco2)C(C)(C)c2ccccc21,84.3
3,C/C(O)=c1/ccc2cccc3nc(C)nc1c23,12.9
4,N=c1c(C(=O)NCC2CCCO2)cc2c(=O)n3ccccc3nc2n1Cc1cccnc1 (centres undefined),72.9
5,CCN(CC)c1ccc2c(C)c(CO)c(=O)oc2c1,70.6
6,CCOCCCNC(=S)NCCCNc1nc2ccc(C)cc2cc1C#N,163
7,COc1cc(/C=C(\C#N)C(=O)NCc2cccs2)ccc1O,52.4
8,COCCOC(=O)C(C#N)c1nc2ccccc2nc1N1CCN(Cc2ccccc2)CC1 (centres undefined),99.7
9,CCCn1c(=NC(=O)c2c(-c3c(F)cccc3Cl)noc2C)c(C(=O)OCC)cc2c(=O)n3ccccc3nc21,89.5
10,CCCNC(=O)c1c(N)n(-c2cc(OC)cc(OC)c2)c2nc3ccccc3nc12,95.1
11,CC(C)S(=O)(=O)C1=NSC2=NC(=O)/C(=C\c3ccc(-c4ccccc4)o3)C(=N)N21,71.5
12,Cc1ccc2nc(NCCC(=O)O)nc(-c3ccccc3)c2c1,70.6
13,COC(=O)c1cc2c(=O)n3cccc(C)c3nc2n(Cc2cccnc2)c1=N,72.9
14,O=C(NCc1ccco1)c1cc2ccc(O)cc2oc1=O,72.9
15,CCOC(=O)C1=CN(CC2CCCO2)C=C(C(=O)OCC)C1c1ccccc1C(F)(F)F (centres undefined),107
16,COCCN1C=C(C(=O)OC)C(c2cc(Br)c(OC)c(OC)c2)C(C(=O)OC)=C1,166
17,O=C(O)c1cc(Cl)ccc1-c1ccc(/C=C/c2cc(C(F)(F)F)[nH]c(=O)n2)o1,70.6
18,CCOc1ccc(C2C=C(c3ccc(F)cc3)Nc3ncnn32)cc1 (centres undefined),71.5
19,CCCCc1cc(=O)oc2cc(O)cc(O)c12,59.6
20,N#Cc1c2ccc(O)cc2n2ccccc12,70.6
21,CC1C2=C(CC(C)(C)CC2=O)NC2=C1C(=O)CC(C)(C)C2,70.6
22,N#C/C(=C(/O)CCCl)c1ccccn1,78
23,COc1ccccc1C1CN(c2ccc(F)cc2F)N=C1c1cccs1 (centres undefined),60.6
24,CN(CCC#N)c1ccc(/C=C(\C#N)c2ccccn2)cc1,69.1
25,CCc1cc(=O)oc2c(CN3CCN(C)CC3)c(O)c(Cl)cc12,192
26,CC(=O)c1cc2c(cc1NC(=O)Nc1cccc(Cl)c1)OCCO2,71.5

row,SMILES,inhibition [%]
1,CCN1CCS/C1=C\C=C\C1=[N+](CC)CCS1,185
2,CCN1/C(=C2\OC(=S)N(C)C2=O)Sc2ccccc21,63.8
3,Oc1ccc(Nc2nc(N3CCCC3)c3ccccc3n2)cc1,96.5
4,CC(C)CN(Cc1c(O)ccc2c3c(c(=O)oc12)CCC3)CC(C)C,76.8
5,COC(=O)C1=CN(C(C)C)C=C(C(=O)OC)C1c1cc(Br)c(OC)c(OC)c1,71.5
6,COCCCn1c(=N)c(C(=O)NCc2ccc3c(c2)OCO3)cc2c(=O)n3ccccc3nc21,172
7,CCc1cc2c(C)cc(=O)oc2cc1OC(=O)C1CCCN1C(=O)OC(C)(C)C (centres undefined),82.7
8,N#Cc1c(N)n(CCNC(=O)c2ccccc2)c2nc3ccccc3nc12,74.4
9,Cc1ccc(S(=O)(=O)c2c(N)n(NC(=O)C3CC3)c3nc4ccccc4nc23)cc1,82.6
10,Cc1ccc(-c2c(C#N)c(N)n3c(nc4ccccc43)c2C#N)cc1,137
11,COc1ccc(N2C3=C(C(=O)CC(C)(C)C3)C(c3cnn(C)c3)C3=C2CC(C)(C)CC3=O)cc1,97.8
12,O=C(N/N=C/c1c(O)n(-c2ccccc2Cl)c(=O)c2ccccc12)c1cccnc1,70.6
13,COc1ccc(-c2ccc(CCC(=O)O)n2CC(C)C)cc1,93.7
14,N#Cc1c2ccc(OCC(N)=O)cc2n2ccccc12,70.6
15,CCOc1ccc(-n2c(N)c(C(=O)NCc3ccco3)c3nc4ccccc4nc32)cc1,104
16,NNc1nc2sc3c(c2c(=O)n1C1CCCCC1)CCN(Cc1ccccc1)C3,106
17,CC(NC(=O)OC(C)(C)C)C(=O)Oc1cc2oc(=O)cc(-c3ccccc3)c2cc1Cl (centres undefined),67.7
18,CCOc1ccc2nc(N3CCOCC3)nc(C)c2c1,73.7
19,CCNC(=O)/C(C#N)=C/c1c(N2CCOCC2)nc2ccccn2c1=O,71.5
20,c1ccc2[nH]c(SN3CCOCC3)nc2c1,59.7
21,CC(C)(C)OC(=O)NCCC(=O)Oc1ccc2ccc(=O)oc2c1,87.4
22,O=c1oc2cc(O)ccc2c2c1CCCC2,112
23,CCCN1C2CCCC1CC(NC(=S)Nc1ccc(OC)cc1)C2 (centres undefined),77.8
24,O=c1cc(CN2CCN(S(=O)(=O)c3ccc4c(c3)OCCO4)CC2)c2ccc(O)cc2o1,164
25,COc1ccc2nc3c(cc2c1)c(NC(=O)c1cccs1)nn3CC(C)C,116
26,CCCn1nc(NC(=O)C2CCCO2)c2cc3cccc(C)c3nc21 (centres undefined),99.3

row,SMILES,inhibition [%]
1,CCc1c(C)c(C#N)c2nc3ccccc3n2c1NCc1ccccn1,72.4
2,O=c1c(O)c(-c2cccs2)oc2ccc(Cl)cc12,72.9
3,CCOC(=O)c1c(NC(=O)C(C)Sc2cccc[n+]2[O-])sc2c1CCN(Cc1ccccc1)C2 (centres undefined),76
4,Cc1ccccc1Oc1nc2c(C)cccn2c(=O)c1/C=C(\C#N)C(=O)NC1CCS(=O)(=O)C1 (centres undefined),113
5,CC1(C)Cc2c(sc3ncn4c(=S)[nH]nc4c23)CO1,56.1
6,O=C(O)c1ccccc1-c1ccc(/C=C/c2cc(C(F)(F)F)[nH]c(=O)n2)o1,70.6
7,CCN1CCc2c(sc(N)c2C#N)C1,112
8,COc1ccc(CCNC2=C(Cl)C(=O)N(CCc3ccccc3)C2=O)cc1OC,72.9
9,Cc1cccn2c(=O)c3cc(C(=O)NCC4CCCO4)c(=N)n(CCN4CCOCC4)c3nc12 (centres undefined),124
10,O=Cc1cn(-c2ccccc2)nc1-c1cc2cc(O)ccc2oc1=O,72.9
11,CCN(CC)c1ccc2cc(C(=O)Nc3ccccn3)c(=O)oc2c1,71.5
12,N#Cc1cc2c(=O)n3ccccc3nc2n(-c2ccccc2Cl)c1=O,70.6
13,Cc1c(O)ccc2c(CN3CCN(CCO)CC3)cc(=O)oc12,71.5
14,COc1ccc(Oc2nc3c(C)cccn3c(=O)c2/C=C(\C#N)C(N)=O)cc1,117
15,Cc1ccc(-n2c(=O)c(C#N)cc3c(=O)n4ccccc4nc32)cc1,71.5
16,CN1/C(=C\C(=O)c2cccs2)C(C)(C)c2ccccc21,71.5
17,NC(=O)c1c(NC(=O)C2COc3ccccc3O2)sc2c1CCN(Cc1ccccc1)C2 (centres undefined),134
18,CCCCCCc1cc2cc(C(=O)Nc3cccc(OC)c3)c(=O)oc2cc1O,90.7
19,CCCn1nc(NC(=O)C2CCCO2)c2cc3cc(C)ccc3nc21 (centres undefined),59.9
20,CCN(CC)c1ccc(/C=c2\sc3nc4ccccc4n3c2=O)c(O)c1,70.6
21,COc1ccccc1NC(=O)c1cc2ccc(O)cc2o/c1=N\O,152
22,O=C(c1cc2c(=O)n3ccccc3nc2s1)N1CCc2ccccc2C1,86.3
23,Cc1ccc(S(=O)(=O)Nc2nc3ccccc3nc2Nc2cccc(S(=O)(=O)N3CCCC3)c2)cc1,133
24,COc1ccc(N=c2oc3cc(O)ccc3cc2C(=O)NCC2CCCO2)cc1 (centres undefined),126
25,O=c1c2ccccc2sn1-c1nccs1,73.6
26,O=C(Nc1ccc(Nc2ccncc2)cc1)c1ccc(Nc2ccnc3ccc([N+](=O)[O-])cc23)cc1,105

row,SMILES,inhibition [%]
1,COc1ccc(-n2c(N)c(C(=O)NCc3ccco3)c3nc4ccccc4nc32)cc1,130
2,Cc1ccc(CN2C(=O)N/C(=C\c3ccc(-c4ccc(C(=O)O)cc4C)o3)C2=O)cc1,98.2
3,O=C(N/N=C/c1ccc(-c2ccc(Cl)c(C(=O)O)c2)o1)c1cc2c(ccc3ccccc32)o1,70.6
4,CCN(CC)c1ccc2cc(-c3nc(-c4ccc(OC)cc4)cs3)c(=O)oc2c1,71.5
5,CCOC(=O)c1c(NC(=O)CSc2ncccn2)sc2c1CCN(Cc1ccccc1)C2,160
6,CN(C)c1ccc(/C=C(\C#N)C(=O)NCc2ccco2)cc1,106
7,COc1cc(C2C=C(c3cccs3)Nc3ncnn32)cc(OC)c1OC (centres undefined),70.6
8,N#Cc1cc2c(=O)n3ccccc3nc2n(-c2ccc(Cl)cc2)c1=O,70.6
9,CCC(CO)[n+]1c(C)cc(/C=C2\Sc3ccccc3N2Cc2ccccc2)cc1C (centres undefined),134
10,CCn1c(=N)c(C(=O)NCc2cccnc2)cc2c(=O)n3cccc(C)c3nc21,72.9
11,CCCn1nc(C(=O)Oc2ccc3c(C)cc(=O)oc3c2)c2ccccc2c1=O,90.9
12,CCSc1nc(N2CCOCC2)c2c(c1C#N)CC(C)(C)N(C)C2,115
13,COC(=O)CSc1nc(N2CCOCC2)c2c(c1C#N)CC(C)(C)N(C)C2,72.9
14,CC(C)Cn1c(N)c(C(=O)NCC2CCCO2)c2nc3ccccc3nc21 (centres undefined),77.9
15,O=C(O)CCC(=O)c1ccc2ccc3cccc4ccc1c2c34,89.3
16,CCCN1CC=C2C(C#N)=C(N)C(C#N)(C#N)C(c3cccc(OC)c3OC)C2C1 (centres undefined),71.5
17,Cc1ccc(-c2nc(N)s[n+]2-c2ccccc2)cc1,64
18,CCOC(=O)C1=C(C)NC2=C(C(=O)C(C(=O)OCC)C(c3cccc(OC)c3)C2)C1c1ccccn1 (centres undefined),87.8
19,COc1ccc(C2C(C(=O)c3cccs3)=C(O)C(=O)N2c2nncs2)cc1 (centres undefined),92.2
20,COC(=O)c1c(N)n(-c2ccc(NC(C)=O)cc2)c2nc3ccccc3nc12,76.9
21,COc1cccc(C2C(C(=O)Nc3nc4ccccc4s3)=C(C)NC3=C2C(=O)CC(C)(C)C3)c1OC (centres undefined),130
22,CCN1CCN(C2=CC3=CC(=C(C#N)C#N)CCC3CC2)CC1 (centres undefined),70.6
23,CCOCCCNC(=S)NCCCNc1nc2cc3c(cc2cc1C#N)OCO3,150
24,COCCCn1c(=N)c(C(=O)NCC2CCCO2)cc2c(=O)n3cccc(C)c3nc21 (centres undefined),71.5
25,N#C/C(=C\c1c(N2CCCCC2)nc2ccccn2c1=O)C(=O)NC1CCS(=O)(=O)C1 (centres undefined),71.5
26,COC(=O)C1=CN(CC2CCCO2)C=C(C(=O)OC)C1c1cc(OC)c(OC)c(OC)c1 (centres undefined),90.2
